B1: TPR 5TU (parent)
chain: GGAUCUUCUCGAUCUAACAAAAAAGACAAAUCUGCCACAAAGCUUGAGAGCAUCUUCGGAUGCAGAGGCGGCAGCCUUCGGUGGCGCGAUAGCGCCAACGUUCUCAACUAUGACACGCAAAACGCGUGCUCCGUUGAAUGGAGUUUAUCAUG

This sample is rich in variants without activity.

This series covers variants of B1. The series is described as follows: polymerase ribozyme fitness, log enrichment relative to wild type (log ratio); higher = more active; in vitro selection for triplet polymerase activity. The gist of the method:
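A single round of triplicate in vitro selection, including frozen incubation at −7 °C, was applied to PCR-built, transcribed mutant libraries of each subunit of a heterodimeric triplet polymerase ribozyme. Illumina sequencing of input and output libraries retained genotypes with ≥10 input reads and ≥1 read per output. Fitness is the base-2 logarithm of genotype enrichment divided by wild-type enrichment, from inverse-variance-weighted replicate averages.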
Consider G42U U127A, for which the “polymerase ribozyme fitness (log ratio)” value was ≤ -4.2.
Consider G42A C43A U82A A98G, for which the “polymerase ribozyme fitness (log ratio)” value is ≤ -4.2.
Regarding C43U U55G A60U U109A U145C U146C, the “polymerase ribozyme fitness (log ratio)” value was ≤ -4.2.
Consider C43U A49C A73U C85U C103G U130C U134A, for which the “polymerase ribozyme fitness (log ratio)” value was ≤ -4.2.
Under A40U U77G G80A C129A U148A stands ≤ -4.2.
Under C43A A66C C85G C103A U151A stands ≤ -4.2; under A41U C54A C96U U101C U109G U139A, ≤ -4.2.
Under C43U U55A C85U A91U A97C stands ≤ -4.2; under C43U C63A A89U C99U U127G, ≤ -4.2.
With G42C C79A C116A G124A G133C, the “polymerase ribozyme fitness (log ratio)” value was ≤ -4.2.
As for A41C A47C G80C G84U G128A G136C, the “polymerase ribozyme fitness (log ratio)” value was ≤ -4.2.
For A41U G83A A150U, the “polymerase ribozyme fitness (log ratio)” value is -0.63.
In the case of G42U U55A C57U G59C A91U C93G, the “polymerase ribozyme fitness (log ratio)” value is ≤ -4.2.
Regarding C43G A49G G68A C105G U151G, the “polymerase ribozyme fitness (log ratio)” value was ≤ -4.2.
As to A41C G81U G86U U104C, the “polymerase ribozyme fitness (log ratio)” value was -1.73.
G42U C57U G59C U61A C85A U111C G136C U148G: the “polymerase ribozyme fitness (log ratio)” value was ≤ -4.2.
Under A41C A66G C79A C118U G126C stands ≤ -4.2; under G42U C93U C96G, ≤ -4.2.
In the case of G42C C51A U61A G80C A91G, the “polymerase ribozyme fitness (log ratio)” value was ≤ -4.2.
As for A41G A49C U55G G88C A119G G126A, the “polymerase ribozyme fitness (log ratio)” value is ≤ -4.2.
Take G42C C108U: the “polymerase ribozyme fitness (log ratio)” value was ≤ -4.2.
Regarding G42U U44A C85A C96G A115C C129A, the “polymerase ribozyme fitness (log ratio)” value was ≤ -4.2.
Under C43A A47C A73G A97U U148C stands ≤ -4.2; under A40U U61G G65A C75U C79U A98U C123G C125A U144C, ≤ -4.2.
On to A41U G59U A60C C72U C87A G124C, for which the “polymerase ribozyme fitness (log ratio)” value was ≤ -4.2.
For the variant G42A G74A G86A U102G G143C, the “polymerase ribozyme fitness (log ratio)” value was ≤ -4.2.
On to G42A U55A C96A, for which the “polymerase ribozyme fitness (log ratio)” value is -4.06.
With C43G A49C U53A C79G C103A A115G A150G, the “polymerase ribozyme fitness (log ratio)” value is ≤ -4.2.
On to G42A A91U A122C, for which the “polymerase ribozyme fitness (log ratio)” value is ≤ -4.2.
With C43U C125G U151G, the “polymerase ribozyme fitness (log ratio)” value is ≤ -4.2.
For the variant C43U G81C G88A G133C, the “polymerase ribozyme fitness (log ratio)” value is ≤ -4.2.
A41U C54U G88U U148A: the “polymerase ribozyme fitness (log ratio)” value was ≤ -4.2.
In the case of G42C G62A C79A G83A U146C, the “polymerase ribozyme fitness (log ratio)” value is ≤ -4.2.
For A41C G81C A107U C118U G126A G140C, the “polymerase ribozyme fitness (log ratio)” value is ≤ -4.2.
A40U G74U: the “polymerase ribozyme fitness (log ratio)” value is ≤ -4.2.
As for A41U U55A U56G G83A A121G U148C, the “polymerase ribozyme fitness (log ratio)” value is ≤ -4.2.
Under G42C G70U C85A stands ≤ -4.2; under A41C G50A G74A U82G C95U A107C, ≤ -4.2; under C43U G48A C72G G81A G84U A121G G128U A147C C149G, ≤ -4.2.
Take G42A C54A G86A G141A: the “polymerase ribozyme fitness (log ratio)” value is ≤ -4.2.
On to A41U U55A G81C C114G, for which the “polymerase ribozyme fitness (log ratio)” value is ≤ -4.2.
For A41G C54A A60G C75A C87U G94A, the “polymerase ribozyme fitness (log ratio)” value is ≤ -4.2.
With A40U G48A C75A A107U A138U G141A, the “polymerase ribozyme fitness (log ratio)” value was ≤ -4.2.
Then A41C U45G U53A G83C A91U C93U A115G U144A, with ≤ -4.2.
Turning to G42A G81C A106G G126C C131G, the “polymerase ribozyme fitness (log ratio)” value was ≤ -4.2.
G42A G86A C103U A119C: the “polymerase ribozyme fitness (log ratio)” value is ≤ -4.2.
Consider A41C U135G, for which the “polymerase ribozyme fitness (log ratio)” value is -3.54.
Under C43U C76U C95U G128C U135C stands ≤ -4.2.
Consider A41U G42U G50A G59A C87U G133U, for which the “polymerase ribozyme fitness (log ratio)” value was ≤ -4.2.
Regarding A41C U44G A66C A107G, the “polymerase ribozyme fitness (log ratio)” value is ≤ -4.2.
Turning to G42C A47C C57U G81C C95A, the “polymerase ribozyme fitness (log ratio)” value was ≤ -4.2.
With C43U A52C C54U C79G, the “polymerase ribozyme fitness (log ratio)” value is ≤ -4.2.
For the variant A41G C76G A91U G126A G136A, the “polymerase ribozyme fitness (log ratio)” value is ≤ -4.2.
In the case of C43G G94A G133U A137U, the “polymerase ribozyme fitness (log ratio)” value was -4.11.
As to A40U C96U C105A A147C, the “polymerase ribozyme fitness (log ratio)” value was ≤ -4.2.
With G42C C85U, the “polymerase ribozyme fitness (log ratio)” value is -3.97.
C43A C57A C85A G92A G143U: the “polymerase ribozyme fitness (log ratio)” value was ≤ -4.2.
Then C43U C96G, with ≤ -4.2; and G42A G58A C93U A121C U130A G133C A142C A147G A150U, with ≤ -4.2.
With G42C A60C G68A C108U C125A, the “polymerase ribozyme fitness (log ratio)” value is ≤ -4.2.
Take G42A G58A A66C A91U G143C U145G: the “polymerase ribozyme fitness (log ratio)” value was ≤ -4.2.
Under A41C C57U A89U G92C C116G C125A stands ≤ -4.2; under A41C A120U, -0.45; under G42U U45C C72U C85G A98G A106C G117U, ≤ -4.2.
Turning to G42C C87A G88A G140U, the “polymerase ribozyme fitness (log ratio)” value was ≤ -4.2.
Take A40U G68A C116A A137U: the “polymerase ribozyme fitness (log ratio)” value is ≤ -4.2.
With G42U G70U C96A U127C, the “polymerase ribozyme fitness (log ratio)” value is ≤ -4.2.
As to A41C A49C G62A G74U A121G U146C, the “polymerase ribozyme fitness (log ratio)” value was ≤ -4.2.
Consider A41C U55A G94A G112U U134A, for which the “polymerase ribozyme fitness (log ratio)” value was ≤ -4.2.
A41C G50A G81A C87U C93G: the “polymerase ribozyme fitness (log ratio)” value is ≤ -4.2.
As for C43A C95U U102C C118U A119C U130A, the “polymerase ribozyme fitness (log ratio)” value was ≤ -4.2.
On to C43G G48C G50C U101C C149A, for which the “polymerase ribozyme fitness (log ratio)” value was ≤ -4.2.
In the case of G42C G71U C118G G136A, the “polymerase ribozyme fitness (log ratio)” value is ≤ -4.2.
Take A41U G83A: the “polymerase ribozyme fitness (log ratio)” value is -0.754.
Then G42C C54U G94A G143C, with ≤ -4.2; and A41U G58A C85U A110U G124C A147U, with ≤ -4.2.
G42U G83A C85A: the “polymerase ribozyme fitness (log ratio)” value is ≤ -4.2.
As to G42A G136A A150U, the “polymerase ribozyme fitness (log ratio)” value was ≤ -4.2.
Then A40U G68C C96U C105A, with ≤ -4.2.
In the case of G42A A52G U55A C79G A89U C95U C114U G133U U144C, the “polymerase ribozyme fitness (log ratio)” value is ≤ -4.2.
As to C43U U82G A89G C116A, the “polymerase ribozyme fitness (log ratio)” value is ≤ -4.2.
As for A41C C95A, the “polymerase ribozyme fitness (log ratio)” value was -0.7.
For the variant A41C C95U, the “polymerase ribozyme fitness (log ratio)” value is -2.15.

For the origin of these results see the RNAGym collection of RNA variant scans (doi:10.1073/pnas.2313332121).
